Source: the supplement of paper PMC3724861
Some of the results follow.

Each sequence was assayed on T1, Caupolican (Caup) homeodomain DNA-binding domain (assay: PBM E-score (8-mer, recovered from the published 9-mer minima) (E-score (dimensionless, -0.5 to 0.5)); Drosophila protein; higher = stronger relative binding preference, active = 0.31 or more).
T1 sequence: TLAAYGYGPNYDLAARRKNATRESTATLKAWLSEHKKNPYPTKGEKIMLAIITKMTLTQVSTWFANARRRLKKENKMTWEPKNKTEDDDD
How it was run: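 Caup's homeodomain DNA-binding domain (residues 214-303) was made by in vitro transcription and translation and applied at 100 nM to custom-designed protein binding microarrays. Each value is an enrichment score that gives relative binding preference for a short DNA word, with higher meaning stronger. The 8-mer values were recovered from published 9-mer scores, each of which was the minimum of its two constituent 8-mer scores. A cutoff of 0.31 marks candidate sites.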

Sequence | PBM E-score
GTAGCCGA | inactive: 0.0173
CACCTGCA | inactive: -0.0858
ACAGACGC | inactive: 0.0138
ACCCTTTC | inactive: 0.0191
GCCTCGTA | inactive: 0.00536
GAACGTGA | inactive: -0.00878
ATCTATCC | inactive: 0.0324
AGGTATCA | inactive: 0.141
CATATCAC | inactive: 0.208
ATTGTAGC | inactive: 0.144
GGCCATAC | inactive: -0.0567
ACGAGTCC | inactive: -0.0179
GGACCAAA | inactive: -0.0836
ACGCTTAC | inactive: -0.0441
CATCGTAG | inactive: -0.0768
CCTAGTTA | inactive: 0.0742
CCCACTCA | inactive: -0.0949
TATGAGGA | inactive: 0.0611
AGTTCGGC | inactive: -0.0963
TACATTGA | inactive: 0.297
AGGAACAA | inactive: 0.165
ACTAAGAA | inactive: 0.0973
ACGACACG | ≥ 0.301
AGACTTAG | inactive: -0.0606
GTAACCCA | inactive: 0.126

Sequence | PBM E-score
TATCCCAA | inactive: 0.0112
ACGTTACG | inactive: 0.0614
GTCACCAC | inactive: -0.0334
ACCAACGA | inactive: 0.0368
AGCTTTCG | inactive: -0.116
CAAGGTCC | inactive: -0.0224
TCCCGAGA | inactive: -0.0982
GCACAAGA | inactive: 0.0557
ATTCTCGG | inactive: 0.0392
CAAGCCTA | inactive: 0.0113
CTTTGGAC | inactive: 0.0347
CCAGGGTA | inactive: -0.146
CACTAGCG | inactive: -0.129
CCGTACTA | inactive: 0.0438
AAACCCCG | ≥ -0.0734
GATTACTA | inactive: 0.184
GCGGGCTA | ≥ -0.128
CTGTCATC | inactive: 0.134
CATTAAGC | inactive: 0.00554
TCGACGCA | inactive: -0.107
ACCTTTAA | inactive: -0.0379
AAACTCCG | inactive: -0.0817
GTATATAC | inactive: 0.0688
GCCTCGCC | inactive: -0.193
ATGTCGAC | active: 0.326

Sequence | PBM E-score
AAATGAGG | inactive: -0.113
AGGCTACT | inactive: -0.0174
ACGGTCGC | inactive: -0.0621
AGCGCACC | inactive: -0.0646
GTCGACCA | inactive: -0.0408
GATTCACC | inactive: -0.101
AGGGTGTA | inactive: 0.193
AAGATCGA | inactive: 0.0302
CTCGTCCA | inactive: -0.0549
AATGTGAT | inactive: 0.24
GTCATGAA | inactive: 0.0353
ATGACCAA | inactive: 0.0741
CTCCAGCA | inactive: -0.0777
CTACTGGC | inactive: -0.161
CTGGCCCC | inactive: -0.225
GGTCCACA | inactive: -0.00834
AACACTCG | inactive: 0.0192
CTCTGAGC | inactive: -0.107
AAAGGACC | inactive: -0.146
AATAGCGC | inactive: -0.0439
ACAAGGTA | active: 0.335
GGATAGCC | inactive: -0.166
GCCCCTAC | inactive: -0.167
AGTTAAAA | inactive: 0.12
GTGTAACA | active: 0.397

Sequence | PBM E-score
TCGTAAGA | inactive: 0.0323
ATTGCTAC | inactive: 0.0957
AAGAGAAT | inactive: -0.0389
AAGTATGA | inactive: 0.111
CGGGAACC | inactive: -0.163
AAGTGTTC | inactive: 0.154
GTAGTCAA | inactive: 0.136
CCGAACAC | inactive: 0.119
GCTGAACA | inactive: 0.182
ATACTGAT | inactive: 0.189
CCGTAGTA | inactive: 0.0724
GGCTTCAA | inactive: -0.0907
AGGTTATA | inactive: 0.0929
ATAAAGTC | inactive: 0.0274
CCTCGAAG | inactive: -0.0776
CTAACCAA | inactive: 0.0913
CCTGACCC | inactive: -0.182
TACGGTAA | inactive: 0.116
CAGCGCTA | inactive: -0.0147
GGGAGTGA | inactive: -0.0488
AGAAGGCT | inactive: -0.215
AACCCGAT | ≥ 0.0241
CAGGGTAC | inactive: 0.0986
CAGCCGGC | inactive: -0.299
GGCCCTAC | inactive: -0.163

Sequence | PBM E-score
GCGCGCGC | ≥ -0.06
GACCACAC | inactive: -0.0391
GACCCCTC | inactive: -0.227
GATTGGTA | inactive: 0.126
AGGCAACG | inactive: -0.109
CCTGAAAG | inactive: -0.109
ACCCGGCC | inactive: -0.322
AAAGAGTA | inactive: 0.0035
AGCTTTGA | ≥ 0.00033
CGGAAGTC | inactive: -0.141
CCTTCTCA | inactive: -0.0702
CTTTGTGA | inactive: 0.0514
GACAGCCA | inactive: -0.0268
TCACAGAA | inactive: -0.0106
CTTGAACC | inactive: 0.00592
AATATATT | inactive: 0.253
CACTTACG | inactive: 0.0708
AACGCCTG | inactive: -0.0371
ACATCACC | inactive: 0.186
ACAATATG | inactive: 0.296
CCATAAAA | inactive: 0.0948
CGCTGAAC | inactive: 0.0226
GCCAGTGA | inactive: -0.0845
CAACCCGC | inactive: -0.0395
CGCCCAAA | inactive: -0.0746

Sequence | PBM E-score
ATCCCTTC | inactive: -0.0331
ACTCTCCA | inactive: -0.0803
AACGACGC | inactive: 0.00675
CGATTCCC | inactive: -0.0812
AGTGAGTG | inactive: -0.0157
AGTCGCAC | inactive: -0.0631
AATTCTTG | inactive: 0.133
CTCGCGGC | inactive: -0.207
CTATACTC | inactive: -0.0213
AGCCGCCC | inactive: -0.249
GATGAATC | inactive: 0.106
ACTCTAAC | inactive: 0.0975
CCGAACAG | inactive: 0.0146
CGTGTAGC | inactive: 0.276
ACAAAATA | inactive: 0.189
CTTTCGGA | inactive: -0.077
AGGAACGC | inactive: -0.132
GAGCATTA | inactive: 0.0861
ATGGGGGG | inactive: -0.295
GTGGCAAA | inactive: -0.117
ACTACGGG | inactive: -0.0453
GCCTGAGC | inactive: -0.224
ACGTGCAC | inactive: 0.0623
ACTACACC | inactive: 0.281
CAATAGAA | inactive: 0.0418

Sequence | PBM E-score
AGGTCTCC | inactive: -0.181
ATCTCCTA | inactive: 0.0705
CTGAGCCC | inactive: -0.214
CTCTCTAA | inactive: -0.145
AAGTGCAG | inactive: -0.0499
CACCTAGG | inactive: -0.104
ACCCGATC | inactive: -0.0489
AAGAGCTC | inactive: -0.128
CGGGACGC | inactive: -0.263
CTAGCATC | inactive: -0.0492
ACAACTGT | ≥ 0.224
AAGAGGGT | inactive: -0.0736
AGTCAATC | inactive: 0.098
AACTCGAC | inactive: 0.126
AGAGCGCA | inactive: -0.172
ATCCCAAT | ≥ 0.0794
AATTTGGG | inactive: 0.0832
ACTGCGAG | inactive: -0.104
AGTGCCTA | inactive: -0.0569
ATTGCCTA | inactive: 0.0171
CGCGTCCC | inactive: -0.204
CTGCGTCA | inactive: -0.112
CACCGGCA | inactive: -0.138
AGTTCGTC | inactive: 0.0497
ATGTATAG | inactive: 0.276

Sequence | PBM E-score
CTTGCCTA | inactive: -0.0277
AGACTGAC | inactive: -0.0337
AGTAATTG | inactive: 0.142
GTTAAGGA | inactive: 0.00704
ACTGGGCT | inactive: -0.146
ACGAGATC | inactive: 0.029
GCACGCGC | inactive: -0.208
GATCTTAA | inactive: -0.00294
ACGCTCCG | inactive: -0.222
AGGCTTCG | inactive: -0.26
CTTCAAGA | inactive: 0.0664
GACACGTC | inactive: 0.225
GATCTTAC | inactive: 0.0573
GATATTAA | inactive: 0.0889
AGCGAGCG | inactive: -0.0955
AAGCTCAA | ≥ -0.0103
CTCTCTTC | inactive: -0.194
GCTGAAGC | inactive: -0.14
AGGCGGAC | inactive: -0.156
AGTTACGA | inactive: 0.0856
CGACATGC | active: 0.386
AATACACG | active: 0.343
AGCCCTCC | inactive: -0.284
CGAGGCGA | inactive: -0.193
AACTTTAG | inactive: 0.0331

Sequence | PBM E-score
GACTTGGA | inactive: -0.0172
GATAACCC | inactive: -0.0449
ATTGTCCC | inactive: 0.0502
CGGTCTGC | inactive: -0.148
AATTCCAT | ≥ 0.134
CGACGAAA | inactive: 0.0857
ACGATGAA | inactive: 0.0686
CAAATGGC | inactive: -0.0673
ACCCGGTG | inactive: -0.15
AACGCAGG | inactive: -0.121
CCGGTATC | inactive: -0.106
CGTTGGAC | inactive: -0.0179
ACGGTGGC | inactive: -0.158
AAAGAAGA | inactive: 0.0183
AAGGGCGG | inactive: -0.157
CGTACACG | active: 0.341
AGCACTCA | inactive: -0.103
CATCATCA | inactive: 0.116
GACATTTA | inactive: 0.177
CTATCGAA | inactive: 0.0587
ACGCGGAA | inactive: -0.0044
AACCACCG | inactive: -0.0561
GTACTTCA | inactive: 0.0742
ACCGTAGA | inactive: 0.0263
